Assay results reported in the supplement of paper PMC10126150.
Sequences with one replicate were seen in a single cluster, so their values are uncertain.

tested on: ATP; test: switch fluorescence ratio, 500 uM ATP over buffer (Cy3 cluster intensity, sum of 5 cycles each) (fold (ratio)); higher = stronger signal-on switching upon ATP binding; sequences stand for … in TCGTCGGCAGCGTCAGATGTGTATAAGAGACAGTTTTTTTTTTTTTTTTTTTTTTTTT…TC; settings: aptamer strand: ATP DNA aptamer (quencher-CACCTGGGGGAGTATTGCGGAGGAAGG + anchor), 100 nM annealed; ATP concentration: 500 uM; one replicate
Procedure, shortened: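 Cy3-labelled switching-strand clusters on a modified Illumina MiSeq flow-cell were annealed to 100 nM quencher-labelled ATP aptamer, imaged in selection buffer, then imaged after 15 min with 500 uM ATP at 22 °C. Five buffer/ATP cycles ran, with NaOH stripping and re-annealing between them. The fluorescence ratio is summed target-cycle over summed buffer-cycle Cy3 intensity per cluster, averaged per switch-domain sequence. Clusters outside 100-1000 RFU were excluded.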
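Note: ATP exposure 15 min at 22 °C before imaging.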

Sequence | switch fluorescence ratio
ACGCATGTCA | 1.05
ACGCCAAACA | 1.15
ACGCCATTCC | 1.5
ACGCCCAACC | 1.44
ACGCCCGTTT | 1.06
ACGCGAACGA | 1.07
ACGCGAATTT | 1.35
ACGCGGGGAT | 1.04
ACGCGGGGCT | 1.05
ACGCGGGTTC | 0.968
ACGCTACCGC | 1.36
ACGCTATCGG | 1.11
ACGCTATGTC | 1.14
ACGGAAATGC | 1.36
ACGGAACTTA | 1.16
ACGGAACTTC | 1.29
ACGGAATCTT | 1.08
ACGGACCATA | 1.34
ACGGACCCCA | 1.43
ACGGCACATA | 1.53
ACGGCCATTT | 1.04
ACGGCCCCAA | 1.21
ACGGCGAGG | 0.979
ACGGCGCTTC | 1.29
ACGGGAGTAC | 0.956

Sequence | switch fluorescence ratio
ACGGGATTTA | 1.04
ACGGGCAGTA | 1.04
ACGGGCATAT | 1.22
ACGGGCCAGG | 1.49
ACGGGCGCTG | 1.03
ACGGGCGTTC | 0.993
ACGGGGAAGT | 1.02
ACGGGGACAT | 1.07
ACGGGGCCCA | 1.02
ACGGGGCGGA | 1
ACGGGTAGTA | 1
ACGGGTGACG | 0.884
ACGGTGAAAA | 0.962
ACGGTGAACT | 1.06
ACGGTGGCCG | 1.16
ACGGTGGGT | 0.95
ACGGTTGACT | 1.06
ACGGTTTGGG | 1.01
ACGTAACGAT | 1.33
ACGTACACCA | 1.4
ACGTACGTTC | 1.42
ACGTAGCTGG | 1.17
ACGTATTGTT | 1.09
ACGTCACATC | 1.53
ACGTCGTAGA | 0.985

Sequence | switch fluorescence ratio
ACGTCTGATG | 1.02
ACGTCTGCCC | 0.975
ACGTCTGTCG | 0.963
ACGTGACACA | 1.22
ACGTGACCGA | 1.23
ACGTGAGTTA | 0.931
ACGTGAGTTC | 1.01
ACGTGCAATA | 5.69
ACGTGGAATC | 1.07
ACGTGGCATT | 1.05
ACGTGTAGCC | 0.966
ACGTGTATGC | 1.01
ACGTGTGACC | 1.03
ACGTGTGGG | 0.996
ACGTGTTTT | 0.975
ACGTTAATGT | 1.1
ACGTTACAGC | 1.48
ACGTTACGGG | 1.47
ACGTTAGAA | 1.07
ACGTTAGATA | 1.05
ACGTTATACA | 1.29
ACGTTCGCCA | 1.08
ACGTTCTTGG | 1.03
ACGTTGTATT | 1.01
ACGTTTGAAC | 1.05

Sequence | switch fluorescence ratio
ACGTTTTAGC | 1
ACTAAAGCAT | 1.01
ACTAAGATCA | 1.03
ACTAAGTT | 1.04
ACTAATATAG | 0.975
ACTAATGTCC | 1.12
ACTACAAACC | 1.18
ACTACAACAT | 1.11
ACTACACGCC | 1.32
ACTACCCTC | 1.2
ACTACGGGCT | 1.17
ACTACGGGGA | 1.05
ACTACGGGGG | 0.957
ACTACTATGT | 1.06
ACTAGAGCCC | 0.983
ACTAGAGGCG | 0.989
ACTAGCAGGG | 1.02
ACTAGCAGTG | 1
ACTAGGATTA | 1
ACTAGGTAAT | 0.993
ACTAGGTTG | 0.986
ACTAGTATTC | 0.999
ACTAGTGATA | 1.03
ACTATACATT | 1.24
ACTATAGGGG | 1.03

Sequence | switch fluorescence ratio
ACTATCCCTA | 0.987
ACTATTGCTG | 0.978
ACTATTTGTG | 1.01
ACTATTTTCG | 0.993
ACTCAAAGTC | 1.12
ACTCACAATG | 1.39
ACTCACGGTA | 1.36
ACTCACTCAG | 2.16
ACTCACTGAA | 1.2
ACTCATCACC | 1.14
ACTCATCCAT | 1.04
ACTCATGAAC | 1.09
ACTCCGGCCG | 1.46
ACTCCTGGG | 1.24
ACTCCTTGGC | 1.16
ACTCGAGTAG | 1.01
ACTCGCATAT | 5.02
ACTCGTTTTA | 0.974
ACTCTAGGGG | 1.13
ACTCTCCGCT | 2.04
ACTCTCGATG | 0.99
ACTGAAATAA | 1.02
ACTGAAGCAC | 1.69
ACTGACCAGA | 1.1
ACTGACGGCG | 1.19

Sequence | switch fluorescence ratio
ACTGACTTGT | 1.03
ACTGAGTAGT | 0.988
ACTGAGTGCA | 1.08
ACTGATAACA | 1
ACTGATCCCC | 1.03
ACTGATCCCG | 1.1
ACTGATCTTG | 1.04
ACTGCATGGT | 1.07
ACTGCCCAAT | 1.13
ACTGCGCTC | 3
ACTGCGGTA | 0.98
ACTGGAAGGG | 1.02
ACTGGACGA | 1.23
ACTGGAGCCG | 1.03
ACTGGAGTA | 1.02
ACTGGCCCCC | 1.03
ACTGGCTCCA | 1.06
ACTGGGAAC | 1.03
ACTGGTCTGA | 1.02
ACTGGTTAAC | 1.04
ACTGTAGGTG | 1.11
ACTGTCAATT | 1.03
ACTGTCAGAG | 1.01
ACTGTCCCAC | 1.05
ACTGTCGATA | 1.06

Sequence | switch fluorescence ratio
ACTGTGACTT | 1.17
ACTGTGATTA | 1.01
ACTGTGGTAC | 1.05
ACTGTGTGGG | 0.998
ACTGTTATGC | 1.11
ACTGTTCCGC | 2.01
ACTTAAACGA | 1.08
ACTTAATACG | 1.15
ACTTACCGGT | 1.11
ACTTAGAGGA | 1
ACTTATGAGC | 1.02
ACTTATGAGG | 1.02
ACTTATGCGC | 1.02
ACTTATTACC | 1.07
ACTTATTGGC | 1.06
ACTTCATCCA | 1.35
ACTTCCGCAA | 1.22
ACTTCGTATC | 1.24
ACTTCTATTG | 0.991
ACTTCTGACG | 1.95
ACTTCTGAGC | 1.24
ACTTCTTGCC | 1.07
ACTTGAACAG | 1.07
ACTTGAGGCC | 0.999
ACTTGCGTAA | 0.995

Sequence | switch fluorescence ratio
ACTTGGCCTG | 0.97
ACTTGTACAG | 1.05
ACTTGTTCAA | 0.992
ACTTGTTCTG | 0.996
ACTTGTTGAT | 1.01
ACTTTATAGT | 1.05
ACTTTATATA | 1.07
ACTTTATTTT | 1.08
ACTTTCCCTA | 1
ACTTTCGGCA | 1.06
ACTTTCTGCT | 0.978
ACTTTGATCA | 0.999
ACTTTTAGCT | 1.03
ACTTTTCAGT | 0.987
ACTTTTGGGA | 0.968
AGAAAACGGG | 1.05
AGAAAAGATG | 1.12
AGAAAATCC | 1.09
AGAAAATGGG | 1.01
AGAAAATGGT | 0.994
AGAACCATGT | 1.09
AGAACGAAGC | 0.941
AGAACGATGT | 1.32
AGAAGAAGCG | 1.02
AGAAGAATGT | 0.955
